Source: PubChem BioAssay AID1159614 (National Center for Advancing Translational Sciences (NCATS), 2016)
About 65 (0.1%) of roughly 45,000 compounds were called active. Calls follow the shape of the dose curve; as a rule, active = well fitted activation curve with a large enough effect; inconclusive = small, poorly fitted or top-dose-only effect; inactive = no such curve, though single readings can be large or run the other way. The list shows a part of the results.

Each compound was assayed against Galactocerebrosidase (Homo sapiens) (UniProt P54803) (assay: A Novel Cell-Based Assay to Identify Small Molecules for B -Galactocerebrosidase). Details: 145M-Twi-hGALC-G270D cells, HMU-beta-Gal fluorescence, 48 h; series mostly up to 57.5 µM; activation: at the top concentration.
UniProt P54803, sequence (P54803 whole entry, looked up): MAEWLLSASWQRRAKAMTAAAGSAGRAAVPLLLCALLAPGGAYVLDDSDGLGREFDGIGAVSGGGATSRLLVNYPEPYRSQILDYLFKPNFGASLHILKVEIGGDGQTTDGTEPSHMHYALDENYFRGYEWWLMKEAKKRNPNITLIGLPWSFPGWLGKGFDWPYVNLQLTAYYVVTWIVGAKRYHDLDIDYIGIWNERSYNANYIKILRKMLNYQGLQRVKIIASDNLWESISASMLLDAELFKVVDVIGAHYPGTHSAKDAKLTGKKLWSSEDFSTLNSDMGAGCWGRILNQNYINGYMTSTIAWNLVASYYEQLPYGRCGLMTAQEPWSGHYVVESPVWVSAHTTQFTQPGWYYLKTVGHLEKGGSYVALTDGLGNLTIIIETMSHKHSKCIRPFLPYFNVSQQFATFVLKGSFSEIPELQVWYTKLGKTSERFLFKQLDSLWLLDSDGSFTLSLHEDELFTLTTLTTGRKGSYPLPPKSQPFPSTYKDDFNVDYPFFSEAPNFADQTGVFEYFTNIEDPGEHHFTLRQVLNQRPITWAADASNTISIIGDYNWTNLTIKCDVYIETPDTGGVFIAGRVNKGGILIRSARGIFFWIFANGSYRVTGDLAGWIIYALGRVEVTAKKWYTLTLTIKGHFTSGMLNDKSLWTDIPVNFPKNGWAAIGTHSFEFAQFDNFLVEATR
Summary of the method: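 qHTS, 1536-well; 145M-Twi-hGALC-G270D cells (WT line also made) in DMEM/F12 + 10% FBS; compound incubation on live cells; HMU-β-gal 0.1 mM final, pH 5.2, NaTC; carbonate stop; fluorescence increase = enhanced residual activity.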
Also: 0% is about no effect; nearly all actives have a fitted effect of over 65% in size.

activation, inactive:
Cc1c(Cl)cccc1NC(=O)C1CCCN(C(=O)c2cnn(-c3ccccc3)c2-n2cccc2)C1 (stereo unspecified) -8.41%
O=C(CN1C(=O)COc2ccc(S(=O)(=O)N3CCOCC3)cc21)Nc1ccc(F)c(Cl)c1 3.41%
O=C(Nc1nc2ccc(F)cc2s1)c1nc(SCc2ccccc2F)ncc1Cl -7.43%
O=C(Nc1nc2c(F)cc(F)cc2s1)c1ccc2c(c1)OCCO2 -10%
COc1cc(OC)c(N(C)C(=O)c2cn(C)c(=O)c3cc(OC)c(OC)cc23)cc1Cl -12.5%
Cc1cc(S(=O)(=O)Nc2cc3c(cc2Cl)n(C)c(=O)c(=O)n3C)ccc1F -20.4%
Cn1c(=O)c2cc(C(=O)N3CCN(c4cccc(C(F)(F)F)c4)CC3)sc2c2ccccc21 -13.2%
O=C(Nc1cc(C(F)(F)F)ccc1Cl)c1cc(-c2cccs2)nc2ccccc12 -4.44%
Cc1cc(C)c(S(=O)(=O)NCCc2sc(-c3cccnc3)nc2C)c(C)c1 -7.68%
CCOc1ccccc1N(C)C(=O)c1cc(S(=O)(=O)NCCc2ccc(Cl)cc2)ccc1F 4.2%
Cc1ccccc1CNC(=O)CCc1cn(Cc2ccccc2C)c2ccccc12 -3.79%
CC(C)(C)c1ccc(C(=O)N2CCC(c3noc(-c4ccc(S(=O)(=O)N5CCCC5)cc4)n3)CC2)cc1 -10.7%
CCN(CC)S(=O)(=O)c1ccc(NC(=O)c2ccc3c(=O)n4c(nc3c2)CCCCC4)cc1 -9.09%
CCOc1ccc(NC(=O)c2ccc3c(c2)nnn3C2CCCC2)cc1 -16.3%
Cc1nn(S(=O)(=O)c2ccc(F)cc2)c(C)c1S(=O)(=O)N1CCCCC1 6.55%
Cc1ccc2c(c1)N(C(=O)CCC(=O)Nc1ccc(F)cc1F)CC(C)O2 (stereo unspecified) -20.8%
CCN[C@H]1CN(CCCOC)S(=O)(=O)c2sc(S(N)(=O)=O)cc21 -9.67%
COc1ccc(NC(=O)CSc2c3c(nc4ccccc24)CCC3)cc1Cl 7.59%
CC(C)(C)C(=O)Nc1nnc2n1CCS2 -15.6%
Cc1c(C(=O)Nc2cccc(C(F)(F)F)c2)oc2ccc(S(=O)(=O)N3CCC4(CC3)OCCO4)cc12 -0.545%
Cc1ccc(NC(=O)C2CCN(S(=O)(=O)c3cccc4nonc34)CC2)c(Cl)c1 -4.2%
O=C(Nc1ccc(-c2nc3ccccc3s2)c(O)c1)c1ccc(Br)cc1 -14.1%
CCOC(=O)c1c(C)[nH]c(C)c1S(=O)(=O)N1CCC(C(=O)NCc2cccc(C)c2)CC1 0.609%
CCc1ccccc1NC(=O)CSc1nc(C)c(C(=O)Nc2ccccc2)c(-c2ccc(Cl)cc2)c1C#N -0.577%
Cc1cccc(NC(=O)CSc2nnc3[nH]c(=O)cc(C)n23)c1C -19.3%
CCOC(=O)C1=C(CS(=O)(=O)c2ccc(C(C)(C)C)cc2)NC(=O)NC1c1cccc(OC)c1 (stereo unspecified) -10.5%
Cc1cc(=O)c2c(O)c3c(O)cc(=O)c4c3c3c(cc(O)c1c23)C(C)(C)C=4O -13.4% [at 23.8 µM]
O=C(CCn1c(=O)c2cccn2c2cccnc21)Nc1ccccc1Br 4.41%
O=C(CSCc1ccc(F)cc1)N1CCc2c([nH]c3ccccc23)C1c1ccc(F)cc1 (stereo unspecified) 2.18%
COc1ccc(N2CCN(C(=O)c3cnc(SC)nc3C)CC2)cc1 -9.63%
COc1ccc(-c2cc3c(=O)n(CC(=O)Nc4ccc(Br)c(C)c4)ccn3n2)cc1OC -15.5%
Cc1nn(CC(=O)NCc2cccc(Br)c2)c(=O)c2c1sc1ccccc12 3.64%
CN(C)c1ccc(CNC(=O)CN2C(=O)c3cccnc3Oc3ccc(Cl)cc32)cc1 4.09%
Cc1cc(C)c(S(=O)(=O)NCCc2cc3cc(C)c(C)cc3[nH]c2=O)c(C)c1 -2.9%
O=S(=O)(NCCc1nnc2ccc(SCc3ccc(C(F)(F)F)cc3)nn12)c1ccccc1 -8.75%
CC(C)C(=O)Nc1nnc(S(=O)(=O)N2CCCCCC2)s1 -11.4%
COCCNC(=O)C1CCC(CNS(=O)(=O)c2ccc3c(c2)CC(C)N3C(C)=O)CC1 (stereo unspecified) 3.57%
O=C(C1COc2ccccc2O1)N1CCN(c2nc3c(F)cccc3s2)CC1 (stereo unspecified) -11.2%
COc1ccc(N(CC(=O)NCc2ccccc2Cl)S(=O)(=O)c2c(C)[nH]c(=O)[nH]c2=O)cc1 -8.46%
NS(=O)(=O)c1cc(C2(O)NC(=O)c3ccccc32)ccc1Cl (stereo unspecified) -16.4%
COc1cccc(C(c2sc3nc(-c4ccco4)nn3c2O)N2CCOCC2)c1 (stereo unspecified) -8.83%
COc1ccc(NC(=O)CSc2nnc(-c3ccc(OC)cc3)s2)cc1 -7%
Cc1ccc(Nc2nc3ccc(C)cc3nc2-n2nc(C)cc2C)c(C)c1 -9.85%
Cc1c(C(=O)Nc2cccc(F)c2)oc2c1-c1nn(Cc3c(F)cccc3Cl)cc1CC2 -1.68%
COc1cc(C(CC(=O)Nc2ccc(Br)cn2)N2Cc3ccccc3C2=O)cc(OC)c1OC (stereo unspecified) -21.2%
COc1cccc(CNC(=O)c2sc3nc4n(c(=O)c3c2C)CCC4)c1 -16.6%
O=C(NCCc1cccs1)c1ccc(Cn2c(SCc3ccccc3)nc3cccnc32)cc1 -12.5%
Cc1ccc(N(Cc2cccs2)C(=O)Nc2cccc(Cl)c2)cc1 -6.84%
Cc1c(Cl)cccc1NC(=O)NCc1c(-n2cccc2)sc2c1CCCC2 -20%
Cc1ccc(CNC(=O)c2c(O)nc3ccccn3c2=O)cc1 -7.1%
Cc1ccc(Cn2c(=O)n(CC3CCC(C(=O)N4CCC(C)CC4)CC3)c(=O)c3sccc32)cc1 (stereo unspecified) -20%
Cc1oc2c(c1C(=O)Nc1ccccc1Br)C1=NCCN1C=N2 -1.72%
COc1ccc(N2CC3=C(C2=O)C(c2ccc(O)c(OC)c2)NC(=O)N3C)cc1 (stereo unspecified) -22.5%
CCOc1ccccc1NC(=O)Cn1cnc2c1c(=O)n(C)c(=O)n2C -10.5%
CCOC(=O)c1ccccc1NC(=O)c1cc2c(s1)-c1c(C)cccc1OC2 -22.4%
CCOc1ccccc1NC(=O)CSc1nc2c(oc3ccccc32)c(=O)n1C(C)C -15.9%
CC(C)OCCCNc1sc(S(=O)(=O)c2ccccc2)nc1S(=O)(=O)c1ccc(Cl)cc1 -9.13%
Cn1ncc2c(NCc3ccc(Cl)cc3)ncnc21 -13.7%
COc1ccc(CCNC(=O)c2cnc3ccc(C)cn3c2=O)cc1OC 8.9%
Cc1c(C(=O)Nc2ccc(F)cc2F)oc2ccc3c(c12)C(=O)CC(C)(C)O3 2.09%
COCCCNC(=O)c1cc(-c2ccc(OC)cc2)nc2n[nH]c(-c3ccc(Cl)cc3)c12 4.34%
Cc1ccc2oc(=O)c(-c3nc(-c4cccs4)no3)cc2c1 -5.68%
CCN(Cc1ccccc1)C(=O)CN1C(=O)COc2ccc(S(=O)(=O)N3CCOCC3)cc21 -12.7%
CCN(c1ccc(C)cc1C)S(=O)(=O)c1nnc(NC(=O)c2ccc(F)cc2)s1 -6.83%
Cc1csc2nc(COC(=O)c3ccc(NC(=O)c4ccccc4Br)cc3)cc(=O)n12 -38.2%
O=C(Nc1cccc(C(=O)OCc2cc(=O)n3ccsc3n2)c1)c1ccc(F)cc1 -9.29%
COc1ccc(OC)c(NC(=O)CN(c2ccccc2OC)S(=O)(=O)c2ccc(C)cc2)c1 -7.11%
Cc1ccc(NC(=O)C2CCCN2S(=O)(=O)c2ccc3c(c2)n(C)c(=O)c(=O)n3C)cc1 (stereo unspecified) -9.58%
Cc1nc2nc(SCC(=O)NCCc3ccc(Cl)cc3)nn2c(C)c1Cc1c(F)cccc1Cl -12.6%
CCOCCCNC(=O)CCC(=O)NNc1nc2ccccc2c2nc(C)nn12 -5.49%
Cc1nn(CCC(=O)Nc2cccc(C#N)c2)c(C)c1S(=O)(=O)N1CCC(C)CC1 -1.26%
COC(=O)c1ccccc1NC(=O)Cc1nc(-c2ccc(OC)cc2)no1 -3.93%
COc1ccc(-n2cnc3cc(C(=O)NCCC4=CCCCC4)ccc32)cc1 -13.3%
O=C(CSc1nc2ccccc2n1Cc1cccc(C(F)(F)F)c1)NCc1ccccc1 -8.71%
Cc1cc(C)cc(NC(=O)Cn2c(C)cc(C)c(C#N)c2=O)c1 -9.33%
CCOc1cccc(C2Oc3nc(SC)nnc3-c3ccccc3N2C(C)=O)c1OC (stereo unspecified) -18.7%
CC(=O)Nc1ccc(NC(=O)c2c(-c3ccccc3)noc2C)cc1 2.75%
O=C(O)c1ccc(CSc2nc3cccnc3n2Cc2cccc(F)c2)cc1 -5.65%
CCCOc1ccc(C(=O)Nc2cccc(NC(=O)c3ccc(Cl)cc3Cl)c2)cc1 -18.7%
Cc1nn(CC(=O)NCc2ccco2)c(=O)c2nn(-c3ccccc3)c(C)c12 -5.86%
CC(=O)N1CCc2cc(CNS(=O)(=O)c3ccccc3C(F)(F)F)ccc21 -9.22%
COc1cc(NC(=O)CSc2ccc(-c3sc(C)nc3C)nn2)cc(OC)c1 -10.3%
Cc1ccc(S(=O)(=O)C(CNC(=O)C(=O)NCCc2ccc(F)cc2)c2cccs2)cc1 (stereo unspecified) -6.41%
O=C(CSc1nc2c([nH]c3ccccc32)c(=O)n1-c1ccc(F)cc1)Nc1ccc2c(c1)OCO2 -4.54%
COc1ccc(N2CCN(C(=O)c3ccc(CS(=O)c4cccc(C)c4)o3)CC2)cc1 (stereo unspecified) -5.99%
COc1ccc(Cl)cc1NC(=O)c1oc2ccc(S(=O)(=O)N3CCCCC3)cc2c1C -9.6%
Nc1ncc(S(=O)(=O)N2CCN(c3ccccc3)CC2)cn1 -10.3%
COC(=O)CC1Oc2ccc(Cl)cc2-n2cc(-c3ccc(C)cc3)nc21 (stereo unspecified) 16.2%
COc1ccc(CCNC(=O)c2c3c(nc4ccccc24)C(=O)N(C2CCCCC2)C3)cc1OC -11.9%
O=C(COc1ccc(F)cc1)NCc1ccc2c(c1)CCN2C(=O)c1ccc(F)cc1 -19%
Cc1ccc(C)c(N2CCN(c3nc4ccccc4n4nnnc34)CC2)c1 -4.34%
O=C(Nc1ccc(F)c(Cl)c1)C1CCN(c2ncccn2)CC1 -10.5%
Oc1c(C(c2cccc(Cl)c2)N2CCOCC2)sc2nc(-c3ccco3)nn12 (stereo unspecified) 1.6%
CCN1c2ccccc2-c2nc(SCC(=O)Nc3cc(C)c(Cl)cc3OC)ncc2S1(=O)=O -15.9%
COC(=O)c1ccccc1NC(=O)C1CCCN(C(=O)c2cnn(-c3ccc(F)cc3)c2-n2cccc2)C1 (stereo unspecified) -37.7%
Cc1cc(Br)cc(C)c1OCC(=O)Nc1ccc(S(=O)(=O)Nc2ncccn2)cc1 3.72%
